We go through three compounds from ChEMBL document CHEMBL1961873, “Compounds: GSK PKIS; Assays: Nanosyn kinase panel” (2012).

Molecules are shown by their SMILES. For part of these data: The strong results were mostly taken out for another list; the other results follow. The entries are a selection whose mix differs from that of the whole data set.

Assay [1] deals with 5'-AMP-activated protein kinase catalytic subunit alpha-2 (Homo sapiens) (UniProt P54646). As to conditions: at 1 µM.
The target in assay [2] is T1, NUAK family SNF1-like kinase 1 (Homo sapiens) (UniProt O60285).
T1 sequence (whole entry): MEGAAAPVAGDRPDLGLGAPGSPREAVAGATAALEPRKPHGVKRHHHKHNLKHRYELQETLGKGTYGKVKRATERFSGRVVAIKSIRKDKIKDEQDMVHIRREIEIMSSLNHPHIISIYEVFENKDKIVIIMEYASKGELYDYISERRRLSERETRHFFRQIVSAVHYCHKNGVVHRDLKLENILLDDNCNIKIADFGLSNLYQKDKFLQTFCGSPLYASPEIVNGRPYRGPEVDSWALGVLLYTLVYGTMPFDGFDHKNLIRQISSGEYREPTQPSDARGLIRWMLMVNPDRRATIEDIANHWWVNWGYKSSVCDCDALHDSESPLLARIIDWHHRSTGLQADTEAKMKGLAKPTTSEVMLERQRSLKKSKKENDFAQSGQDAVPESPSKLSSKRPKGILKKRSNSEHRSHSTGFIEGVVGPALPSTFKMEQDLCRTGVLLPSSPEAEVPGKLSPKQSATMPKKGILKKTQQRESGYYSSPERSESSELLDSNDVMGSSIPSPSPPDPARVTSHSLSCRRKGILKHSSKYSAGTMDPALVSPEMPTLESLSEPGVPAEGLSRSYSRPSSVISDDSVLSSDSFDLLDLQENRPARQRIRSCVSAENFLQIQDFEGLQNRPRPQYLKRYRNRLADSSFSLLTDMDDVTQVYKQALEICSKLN
To be noted: at 0.1 µM.

Assay [3] concerns the target T1, NUAK family SNF1-like kinase 1 (Homo sapiens). To be noted: at 1 µM.
Assay [4] has as its target T2, Serine/threonine-protein kinase BRSK1 (Homo sapiens) (UniProt Q8TDC3).
T2 sequence (whole entry): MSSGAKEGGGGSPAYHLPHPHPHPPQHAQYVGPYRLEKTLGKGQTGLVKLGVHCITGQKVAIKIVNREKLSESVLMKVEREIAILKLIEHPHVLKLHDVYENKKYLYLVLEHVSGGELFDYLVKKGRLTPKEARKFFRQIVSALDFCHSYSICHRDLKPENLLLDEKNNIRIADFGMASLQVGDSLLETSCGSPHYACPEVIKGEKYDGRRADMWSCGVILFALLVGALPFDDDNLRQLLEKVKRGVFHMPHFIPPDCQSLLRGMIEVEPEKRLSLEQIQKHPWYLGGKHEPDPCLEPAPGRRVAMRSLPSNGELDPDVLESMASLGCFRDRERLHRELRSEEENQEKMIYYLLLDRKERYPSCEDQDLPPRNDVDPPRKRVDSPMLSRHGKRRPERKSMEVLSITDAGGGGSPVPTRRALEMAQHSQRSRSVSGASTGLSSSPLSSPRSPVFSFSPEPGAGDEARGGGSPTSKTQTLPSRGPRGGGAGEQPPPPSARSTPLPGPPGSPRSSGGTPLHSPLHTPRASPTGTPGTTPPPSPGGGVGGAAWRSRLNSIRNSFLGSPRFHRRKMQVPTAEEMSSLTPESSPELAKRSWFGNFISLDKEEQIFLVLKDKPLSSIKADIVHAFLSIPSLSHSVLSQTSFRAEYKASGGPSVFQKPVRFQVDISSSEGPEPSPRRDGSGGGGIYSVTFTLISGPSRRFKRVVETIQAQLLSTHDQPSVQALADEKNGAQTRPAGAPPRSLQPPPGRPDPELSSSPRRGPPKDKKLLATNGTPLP
To be noted: at 0.1 µM.

Assay [5] concerns the target T2, Serine/threonine-protein kinase BRSK1 (Homo sapiens). As to conditions: at 1 µM.
In assay [6] the target is T3, Serine/threonine-protein kinase BRSK2 (Homo sapiens) (UniProt Q8IWQ3).
T3 sequence (whole entry): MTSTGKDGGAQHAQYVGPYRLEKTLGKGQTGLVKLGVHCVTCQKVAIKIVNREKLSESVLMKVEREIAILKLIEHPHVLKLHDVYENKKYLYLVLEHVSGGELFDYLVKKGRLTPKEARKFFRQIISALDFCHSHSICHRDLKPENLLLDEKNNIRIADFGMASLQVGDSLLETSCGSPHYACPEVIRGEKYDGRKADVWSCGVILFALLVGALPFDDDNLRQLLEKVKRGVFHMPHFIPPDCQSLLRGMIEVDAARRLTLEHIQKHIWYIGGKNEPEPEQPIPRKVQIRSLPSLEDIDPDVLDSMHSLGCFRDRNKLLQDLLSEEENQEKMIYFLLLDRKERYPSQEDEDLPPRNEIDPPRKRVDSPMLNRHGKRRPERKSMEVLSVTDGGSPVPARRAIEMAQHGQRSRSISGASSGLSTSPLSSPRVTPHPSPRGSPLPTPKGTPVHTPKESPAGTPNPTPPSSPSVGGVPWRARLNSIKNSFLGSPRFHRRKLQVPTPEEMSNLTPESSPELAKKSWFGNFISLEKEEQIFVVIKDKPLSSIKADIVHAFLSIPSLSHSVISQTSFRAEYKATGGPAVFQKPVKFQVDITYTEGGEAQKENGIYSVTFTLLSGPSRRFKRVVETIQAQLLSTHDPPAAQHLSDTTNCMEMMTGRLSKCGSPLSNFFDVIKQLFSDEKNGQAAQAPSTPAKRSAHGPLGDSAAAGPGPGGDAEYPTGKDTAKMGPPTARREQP
To be noted: at 0.1 µM.

Assay [7] addresses T3, Serine/threonine-protein kinase BRSK2 (Homo sapiens). As to conditions: at 1 µM.
Assay [8] deals with Calcium/calmodulin-dependent protein kinase type 1D (Homo sapiens) (UniProt Q8IU85). As to conditions: at 0.1 µM.
Assay [9] shares this target. To be noted: at 1 µM.
Assay [10] concerns the target Calcium/calmodulin-dependent protein kinase type II subunit alpha (Homo sapiens) (UniProt Q9UQM7). As to conditions: at 0.1 µM.
Assay [11] has the same target. As to conditions: at 1 µM.
In assay [12] the target is Calcium/calmodulin-dependent protein kinase type II subunit delta (Homo sapiens) (UniProt Q13557). To be noted: at 0.1 µM.
The target is the same in assay [13]. To be noted: at 1 µM.
Assay [14] has as its target T4, Calcium/calmodulin-dependent protein kinase type IV (Homo sapiens) (UniProt Q16566).
T4 sequence (whole entry): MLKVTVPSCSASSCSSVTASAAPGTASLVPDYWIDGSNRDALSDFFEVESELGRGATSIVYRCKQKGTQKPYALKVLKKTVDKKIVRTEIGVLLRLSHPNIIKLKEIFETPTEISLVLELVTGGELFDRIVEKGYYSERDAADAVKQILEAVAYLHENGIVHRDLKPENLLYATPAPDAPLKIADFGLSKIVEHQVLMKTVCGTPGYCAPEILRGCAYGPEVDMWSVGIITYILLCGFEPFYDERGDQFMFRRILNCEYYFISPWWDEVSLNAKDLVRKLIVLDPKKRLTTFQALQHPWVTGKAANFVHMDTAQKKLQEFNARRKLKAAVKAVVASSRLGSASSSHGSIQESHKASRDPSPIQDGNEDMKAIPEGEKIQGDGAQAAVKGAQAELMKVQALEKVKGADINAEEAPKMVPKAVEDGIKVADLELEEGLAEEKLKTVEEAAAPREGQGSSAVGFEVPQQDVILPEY
As to conditions: at 0.1 µM.

Assay [15] has as its target T4, Calcium/calmodulin-dependent protein kinase type IV (Homo sapiens). As to conditions: at 1 µM.
The target in assay [16] is T5, Serine/threonine-protein kinase Chk1 (Homo sapiens) (UniProt O14757).
T5 sequence (whole entry): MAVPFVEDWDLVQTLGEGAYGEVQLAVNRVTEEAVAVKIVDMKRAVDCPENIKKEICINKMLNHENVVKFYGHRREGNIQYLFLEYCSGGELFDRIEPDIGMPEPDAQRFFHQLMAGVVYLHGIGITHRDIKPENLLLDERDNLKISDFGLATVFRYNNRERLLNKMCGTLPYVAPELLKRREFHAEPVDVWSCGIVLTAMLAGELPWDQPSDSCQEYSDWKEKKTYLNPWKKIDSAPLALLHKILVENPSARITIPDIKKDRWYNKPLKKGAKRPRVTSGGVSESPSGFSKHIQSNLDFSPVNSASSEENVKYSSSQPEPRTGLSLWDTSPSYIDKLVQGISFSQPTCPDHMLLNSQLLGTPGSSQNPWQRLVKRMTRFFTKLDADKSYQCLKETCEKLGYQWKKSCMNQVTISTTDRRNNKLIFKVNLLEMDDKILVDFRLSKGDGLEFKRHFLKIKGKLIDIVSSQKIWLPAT
As to conditions: at 0.1 µM.

The target in assay [17] is T5, Serine/threonine-protein kinase Chk1 (Homo sapiens). To be noted: at 1 µM.
Assay [18] addresses Serine/threonine-protein kinase Chk2 (Homo sapiens) (UniProt O96017). As to conditions: at 0.1 µM.
Assay [19] has the same target. To be noted: at 1 µM.
Assay [20] has as its target Death-associated protein kinase 1 (Homo sapiens) (UniProt P53355). As to conditions: at 0.1 µM.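 Further: reported figure is the mean inhibition of DAPK1.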
Chain of UniProt P53355 (P53355 whole entry, looked up): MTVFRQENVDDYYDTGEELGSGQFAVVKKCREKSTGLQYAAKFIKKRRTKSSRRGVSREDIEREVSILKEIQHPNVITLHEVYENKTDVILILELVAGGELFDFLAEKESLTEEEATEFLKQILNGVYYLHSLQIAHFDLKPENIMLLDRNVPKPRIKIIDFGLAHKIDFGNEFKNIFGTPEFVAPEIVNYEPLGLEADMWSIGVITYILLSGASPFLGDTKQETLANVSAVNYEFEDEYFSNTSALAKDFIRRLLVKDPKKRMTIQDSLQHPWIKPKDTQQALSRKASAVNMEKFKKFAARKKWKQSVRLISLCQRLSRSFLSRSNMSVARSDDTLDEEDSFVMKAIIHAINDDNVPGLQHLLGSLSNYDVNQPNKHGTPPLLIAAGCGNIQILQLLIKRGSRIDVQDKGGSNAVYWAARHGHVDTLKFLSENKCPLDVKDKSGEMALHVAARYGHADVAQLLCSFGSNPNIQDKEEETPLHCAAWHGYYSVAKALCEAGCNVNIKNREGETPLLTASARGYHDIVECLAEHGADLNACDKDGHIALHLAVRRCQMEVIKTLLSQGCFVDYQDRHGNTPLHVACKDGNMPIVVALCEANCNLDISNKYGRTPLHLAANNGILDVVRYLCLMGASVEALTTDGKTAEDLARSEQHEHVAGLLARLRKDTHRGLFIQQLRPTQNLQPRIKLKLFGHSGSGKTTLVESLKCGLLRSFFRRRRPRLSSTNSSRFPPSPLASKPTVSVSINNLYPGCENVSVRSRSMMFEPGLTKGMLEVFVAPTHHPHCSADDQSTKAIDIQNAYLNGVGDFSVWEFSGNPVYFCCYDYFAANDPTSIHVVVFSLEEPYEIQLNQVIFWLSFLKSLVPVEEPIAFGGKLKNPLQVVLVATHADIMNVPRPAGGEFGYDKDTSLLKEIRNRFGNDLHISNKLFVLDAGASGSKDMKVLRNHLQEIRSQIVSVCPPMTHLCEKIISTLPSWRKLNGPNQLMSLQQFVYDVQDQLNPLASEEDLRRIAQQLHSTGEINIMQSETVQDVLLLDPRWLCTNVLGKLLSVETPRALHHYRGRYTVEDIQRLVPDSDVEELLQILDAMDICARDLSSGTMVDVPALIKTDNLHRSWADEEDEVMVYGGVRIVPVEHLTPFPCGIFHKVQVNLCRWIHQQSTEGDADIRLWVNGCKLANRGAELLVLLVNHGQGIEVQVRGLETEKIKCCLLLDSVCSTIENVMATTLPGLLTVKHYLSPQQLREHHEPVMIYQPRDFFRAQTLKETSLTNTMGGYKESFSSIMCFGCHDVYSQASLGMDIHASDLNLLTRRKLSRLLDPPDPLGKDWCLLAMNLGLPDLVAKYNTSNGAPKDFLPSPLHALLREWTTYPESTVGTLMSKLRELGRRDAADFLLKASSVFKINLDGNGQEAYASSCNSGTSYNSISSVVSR

Chain of UniProt O96017 (O96017 whole entry): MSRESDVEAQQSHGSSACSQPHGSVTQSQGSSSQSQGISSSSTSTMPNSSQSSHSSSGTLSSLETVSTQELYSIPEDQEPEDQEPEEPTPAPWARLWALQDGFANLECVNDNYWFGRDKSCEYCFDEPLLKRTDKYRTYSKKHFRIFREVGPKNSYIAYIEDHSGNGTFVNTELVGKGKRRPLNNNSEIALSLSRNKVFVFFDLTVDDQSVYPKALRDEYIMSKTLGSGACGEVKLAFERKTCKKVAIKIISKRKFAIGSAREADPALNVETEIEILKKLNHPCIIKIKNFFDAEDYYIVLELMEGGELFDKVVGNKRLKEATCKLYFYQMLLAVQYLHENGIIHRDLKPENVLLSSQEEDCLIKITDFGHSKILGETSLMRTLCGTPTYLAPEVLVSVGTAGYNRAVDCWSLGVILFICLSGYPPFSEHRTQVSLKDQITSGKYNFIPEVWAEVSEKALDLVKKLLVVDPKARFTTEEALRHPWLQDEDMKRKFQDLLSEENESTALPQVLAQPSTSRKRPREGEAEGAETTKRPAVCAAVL
Chain of UniProt P54646 (P54646 whole entry, looked up): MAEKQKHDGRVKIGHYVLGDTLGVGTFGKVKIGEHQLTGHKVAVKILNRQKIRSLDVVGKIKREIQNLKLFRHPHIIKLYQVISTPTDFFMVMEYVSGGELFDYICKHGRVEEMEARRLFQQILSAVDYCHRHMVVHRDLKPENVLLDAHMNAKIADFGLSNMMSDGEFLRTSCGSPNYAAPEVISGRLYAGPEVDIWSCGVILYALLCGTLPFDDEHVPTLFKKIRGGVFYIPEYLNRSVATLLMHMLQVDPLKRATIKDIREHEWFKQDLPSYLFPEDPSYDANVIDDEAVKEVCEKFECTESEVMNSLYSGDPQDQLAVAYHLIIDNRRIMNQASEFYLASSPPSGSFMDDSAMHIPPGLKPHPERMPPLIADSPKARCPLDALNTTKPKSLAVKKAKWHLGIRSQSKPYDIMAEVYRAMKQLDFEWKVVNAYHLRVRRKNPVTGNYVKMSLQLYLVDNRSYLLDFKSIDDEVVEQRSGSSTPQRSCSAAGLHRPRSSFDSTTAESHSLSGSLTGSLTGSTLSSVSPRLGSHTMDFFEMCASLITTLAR
Chain of UniProt Q13557 (Q13557 whole entry): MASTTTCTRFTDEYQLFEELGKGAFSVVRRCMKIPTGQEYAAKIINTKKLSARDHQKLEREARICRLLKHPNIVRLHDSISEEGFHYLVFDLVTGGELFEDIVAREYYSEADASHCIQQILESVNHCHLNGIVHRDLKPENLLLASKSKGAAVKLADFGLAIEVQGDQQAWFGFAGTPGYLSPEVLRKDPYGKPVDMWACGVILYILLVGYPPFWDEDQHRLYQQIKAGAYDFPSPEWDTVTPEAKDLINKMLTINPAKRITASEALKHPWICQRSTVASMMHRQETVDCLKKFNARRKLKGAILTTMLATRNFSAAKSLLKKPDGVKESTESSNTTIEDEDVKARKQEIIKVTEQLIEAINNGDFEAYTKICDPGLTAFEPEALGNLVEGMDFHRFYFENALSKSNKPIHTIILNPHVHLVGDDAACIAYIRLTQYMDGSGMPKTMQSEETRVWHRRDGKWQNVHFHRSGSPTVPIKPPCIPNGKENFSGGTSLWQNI
Chain of UniProt Q9UQM7 (Q9UQM7 whole entry): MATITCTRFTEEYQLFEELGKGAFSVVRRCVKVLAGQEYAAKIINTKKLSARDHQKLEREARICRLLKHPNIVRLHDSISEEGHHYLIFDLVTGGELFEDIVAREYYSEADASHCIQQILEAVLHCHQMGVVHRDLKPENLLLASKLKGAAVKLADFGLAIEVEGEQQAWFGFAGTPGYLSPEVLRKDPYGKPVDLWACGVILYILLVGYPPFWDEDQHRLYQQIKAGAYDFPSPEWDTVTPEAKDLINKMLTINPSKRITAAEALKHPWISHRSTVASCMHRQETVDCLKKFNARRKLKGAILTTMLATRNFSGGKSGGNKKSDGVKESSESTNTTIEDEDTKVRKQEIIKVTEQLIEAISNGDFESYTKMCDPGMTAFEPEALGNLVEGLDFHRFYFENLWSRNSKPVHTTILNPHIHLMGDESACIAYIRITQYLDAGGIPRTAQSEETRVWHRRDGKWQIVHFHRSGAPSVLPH
Chain of UniProt Q8IU85 (Q8IU85 whole entry, looked up): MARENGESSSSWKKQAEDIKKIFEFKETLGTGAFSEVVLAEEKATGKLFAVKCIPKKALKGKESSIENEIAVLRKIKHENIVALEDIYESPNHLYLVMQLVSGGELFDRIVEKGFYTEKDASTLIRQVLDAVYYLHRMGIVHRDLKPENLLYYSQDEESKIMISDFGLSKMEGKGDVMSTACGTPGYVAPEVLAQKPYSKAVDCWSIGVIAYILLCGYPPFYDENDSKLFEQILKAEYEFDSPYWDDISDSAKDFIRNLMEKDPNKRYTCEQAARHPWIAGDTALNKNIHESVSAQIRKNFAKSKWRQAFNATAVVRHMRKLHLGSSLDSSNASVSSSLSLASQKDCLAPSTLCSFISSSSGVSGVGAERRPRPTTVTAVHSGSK

The inhibition is the drop in the measured response relative to a control, in per cent. Consider `Cc1cccc(Oc2nccc(-c3c(-c4ccc(F)cc4)ncn3C3CCNCC3)n2)c1C`, for which the inhibition in [1] is 4.95%; in assay [2], 1.24%; in [3], 1.99%; in assay [4] it was 0.41%; in assay [5] it was 4.29%; in assay [6], 4.04%. In addition, the inhibition is 4.92% in assay [7]; 4.41% in assay [8]; 0.05% in assay [9]; 22.4% in assay [10]; -0.55% in [11]; 2.82% in [12]. Besides, the inhibition in assay [13] is 3.42%; in [14], -1.27%; in assay [15] it was -0.5%; in assay [16], 8.79%; in assay [17] it was 11.7%; in assay [18], 7.37%. For the same compound, the inhibition was 8.27% in assay [19] and 12.6% in assay [20].

As to `O=C1NC(=O)C(c2cccc([N+](=O)[O-])c2)=C1Nc1cc(Cl)c(O)c(Cl)c1`, the inhibition in assay [1] is 4.91%; in [2] it was -0.29%; in [3], 13.7%; in assay [4], -1.07%; in assay [5], 4.78%; in [6], 1.7%. The inhibition in [7] was 3.68%; in assay [8], 1.08%; in assay [9] it was 0.37%; in [10] it was 3.11%; in [11], -0.51%; in assay [12], 2.31%. Besides, the inhibition in [13] turned out to be 1.23%; in assay [14], 1.92%; in assay [15] it was 0.54%; in [16] it was 2.59%; in assay [17], 1.06%; in [18], 1.29%. The inhibition was 0.98% in assay [19] and 3.31% in assay [20].

Consider `Fc1ccc(-c2ncn(C3CCNCC3)c2-c2ccnc(Oc3cccc(C(F)(F)F)c3)n2)cc1`, for which the inhibition in assay [1] was 3.9%; in assay [2] it was 0.1%; in [3], -0.11%; in assay [4] it was -0.84%; in assay [5], 2.06%; in assay [6], 2.52%. Further, the inhibition in assay [7] is 3.08%; in [8] it was 0.93%; in [9], 0.93%; in assay [10], 4.85%; in assay [11], 2.6%; in [12], 3.98%. The inhibition in [13] is 5.24%; in assay [14], -0.04%; in [15], 1.47%; in assay [16], 6%; in [17], 8.71%; in [18], 1.57%. In addition, the inhibition in [19] worked out at 1.85%; in assay [20], 8.37%.
